Source: patent publication US20240368238A1 (DRACOTERPIN BIOMEDICINE, published 2024)

Target: T1, IL-2Rβ/γ-Fc heterodimer (IL-2Rβ-Fc-hole + IL-2Rγ-Fc-knob) (UniProt P14784 27-240; P31785 23-262)
T1 construct: Both chains transfected together into HEK293; purified with Protein A and Superdex 200; used as the analyte in the BLI; also called IL-2Rβ/γ heterodimers; not shown: Fc hole; Fc knob
T1 sequence (looked up) 1: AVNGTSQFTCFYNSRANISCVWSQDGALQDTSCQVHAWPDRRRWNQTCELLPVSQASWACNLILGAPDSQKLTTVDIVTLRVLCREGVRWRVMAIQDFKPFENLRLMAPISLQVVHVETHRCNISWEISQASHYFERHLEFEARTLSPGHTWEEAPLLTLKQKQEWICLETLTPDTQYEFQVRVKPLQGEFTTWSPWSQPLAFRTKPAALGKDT
T1 sequence (looked up) 2: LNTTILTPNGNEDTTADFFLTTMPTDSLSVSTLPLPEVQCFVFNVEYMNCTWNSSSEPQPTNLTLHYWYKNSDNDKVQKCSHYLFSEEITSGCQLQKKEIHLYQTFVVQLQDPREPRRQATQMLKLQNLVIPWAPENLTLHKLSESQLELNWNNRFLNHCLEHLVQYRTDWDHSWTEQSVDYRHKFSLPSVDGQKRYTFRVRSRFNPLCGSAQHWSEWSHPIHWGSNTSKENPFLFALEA
Experiment: BLI (Octet RED96e), AR2G sensors, IL-2Rβ/γ-Fc heterodimer as analyte, 1:1 global fit
Protocol: Experimental data were processed using Data Analysis software 9.0. […] The method of global fitting was applied, i.e., the 6 concentrations were analyzed as a group.

Kd: 9.83 nM
B1: IL-2-10 (IL-2-1 + Fc) (Fc fusion)
chain: APTSSSTKKTQLQLEHLLLDLQMILNGINNGGNPMHGLDGFGMPKKATELKHLQCLEEELKPLEEVLNLAQSKNFHLRPRDLISNINVIVLELKGSETTFMCEYADETATIVEFLNRWITFAQSIISTLT[skipping human IgG1 Fc with changes]
